Reference: PubChem BioAssay AID504937 (National Center for Advancing Translational Sciences (NCATS), 2011)
Hit rate of the full screen: of about 340,000 compounds, about 20 (0.006%) were called active. Inconclusive means that the source gave no clear call. Such entries were picked first, then a sample of the others. Calls come from the whole dose curve; as a rule, active = well fitted inhibition curve with a large enough effect; inconclusive = small, poorly fitted or top-dose-only effect; inactive = no such curve, though single readings can be large or run the other way. A potency beside an inconclusive call is a rough fit, not a confirmed value.

Biological target: Sphingomyelin phosphodiesterase (Homo sapiens) (UniProt P17405)
UniProt P17405, sequence (P17405 whole entry, looked up): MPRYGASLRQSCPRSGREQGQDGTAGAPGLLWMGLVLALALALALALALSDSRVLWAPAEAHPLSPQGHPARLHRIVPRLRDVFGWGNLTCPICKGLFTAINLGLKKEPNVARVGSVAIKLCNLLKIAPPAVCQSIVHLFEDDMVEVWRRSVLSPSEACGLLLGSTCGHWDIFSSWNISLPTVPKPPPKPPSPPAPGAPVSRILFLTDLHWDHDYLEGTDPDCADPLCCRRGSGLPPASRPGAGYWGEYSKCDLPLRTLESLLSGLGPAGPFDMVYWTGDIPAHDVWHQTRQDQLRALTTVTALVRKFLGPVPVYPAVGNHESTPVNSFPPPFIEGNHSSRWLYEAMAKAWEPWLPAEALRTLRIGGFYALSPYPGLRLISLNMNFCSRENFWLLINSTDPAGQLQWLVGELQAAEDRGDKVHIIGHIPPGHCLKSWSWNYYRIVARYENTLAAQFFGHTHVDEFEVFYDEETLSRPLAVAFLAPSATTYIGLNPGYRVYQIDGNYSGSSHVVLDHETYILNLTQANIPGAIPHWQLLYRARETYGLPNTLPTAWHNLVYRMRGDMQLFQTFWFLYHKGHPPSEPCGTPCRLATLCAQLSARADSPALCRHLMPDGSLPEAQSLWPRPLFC
Assay: Inhibitors of Secretory Acid Sphingomyelinase (S-ASM): qHTS
Conditions: placental ASM, HMU-PC fluorogenic substrate (series up to 57.5 µM), 60 min
Summary of the method: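 Fluorogenic HMU-PC substrate (9 uM final) is turned over by placental ASM in 60 min at 37 C after a 10 min compound preincubation. Reaction ended by alkaline stop (pH 10), with fluorescence read at 386/447 nm.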
Potency is the fitted concentration of half-maximal effect; tags give direction and shape of the fitted curve.

Compound	Potency
CC(=O)Nc1ccc(NC(=O)COC(=O)C2(c3ccc(Cl)cc3)CCCC2)cc1	inconclusive: 100 µM [inhibitor, partial curve, poor fit]
COc1cc(OC)c2c(-c3cccc(-c4ccc(O)cc4)c3)cc(=O)oc2c1	inconclusive: 1260 µM [inhibitor, partial curve, poor fit]
Cc1ccc(/C=C2\SC(=S)N(/N=C/c3cc([N+](=O)[O-])ccc3O)C2=O)o1	inconclusive: 282 µM [inhibitor, partial curve, poor fit]
Cc1ccc(-c2cc(C(=O)NCCCN3CCOCC3)c3ccc(Cl)c(C)c3n2)cc1	inconclusive: 70.8 µM [inhibitor, partial curve]
Cc1onc(-c2c(F)cccc2Cl)c1C(=O)OCC(=O)c1c[nH]c2ccccc12	inactive
CCOC(=O)c1cnc(-c2ccccc2)nc1Oc1cccc(Cl)c1	inconclusive: 355 µM [inhibitor, partial curve, poor fit]
Cc1ccc(C)c2c1cc(C)c1nnc(SCC(=O)N3CCCc4ccccc43)n12	inactive
CN(C)c1ccc(/C=N/NC(=O)CN(c2cccc(Cl)c2)S(C)(=O)=O)cc1Br	inconclusive: 224 µM [inhibitor, partial curve, poor fit]
Cn1nc(C(=O)OCC(=O)Nc2ccc3ccccc3c2)c2ccccc2c1=O	inconclusive: 126 µM [inhibitor, partial curve, poor fit]
Cc1cccc(NC(=O)CSc2ccc(-c3ccccn3)nn2)c1C	inactive
CN=C(Nc1ccc(C)c(C)c1)SC1CC(=O)N(c2ccc(OC)cc2)C1=O (stereo not drawn)	inconclusive: 200 µM [inhibitor, partial curve, poor fit]
CC(C)(C)c1ccc(OCc2ccc(C(=O)Nc3cccnc3)o2)cc1	inconclusive: 631 µM [inhibitor, partial curve, poor fit]
CC(=O)N1CCN(c2cc(N3CCc4ccccc4C3)c(F)cc2[N+](=O)[O-])CC1	inconclusive: 112 µM [inhibitor, partial curve, poor fit]
COc1ccc(-c2cc(C3CCN(c4ccc(C(C)=O)cc4[N+](=O)[O-])CC3)[nH]n2)cc1	inconclusive: 39.8 µM [inhibitor, partial curve, poor fit]
COc1ccc(-c2cc(C3CCN(c4ncccc4[N+](=O)[O-])CC3)[nH]n2)cc1	inconclusive: 89.1 µM [inhibitor, single point]
COc1ccc2c(c1)CC=C1C2CCC2(C)C(=O)C(=NO)CC12 (stereo not drawn)	inconclusive: 89.1 µM [inhibitor, partial curve]
COc1ccc(-c2c/c(=N\c3nc(-c4ccccc4)c(C)s3)c3ccccc3o2)cc1O	inconclusive: 158 µM [inhibitor, partial curve, poor fit]
O=C(Nc1ccc(Cl)c(Cl)c1)c1ccc(Cn2cc(Cl)cn2)cc1	inconclusive: 100 µM [inhibitor, partial curve, poor fit]
CS(=O)(=O)N(CC(=O)Nc1ccc(CC#N)cc1)c1ccc(C23CC4CC(CC(C4)C2)C3)cc1	inconclusive: 562 µM [inhibitor, partial curve, poor fit]

Compound	Potency
COc1ccccc1OCCSc1nnnn1C1CCCCC1	inactive
Cc1cc(=O)n2[nH]c(=O)c(N=Nc3ccccc3)c2[nH]1	inconclusive: 562 µM [inhibitor, partial curve, poor fit]
CNC(=O)Nc1ccc2nc(C)sc2c1	inactive
O=S(=O)(NCCOc1ccccc1Cl)c1ccc2oc3ccccc3c2c1	inconclusive: 100 µM [inhibitor, partial curve, poor fit]
CCc1ccc(C2=Nn3c(nnc3-c3cccs3)SC2)cc1	inconclusive: 89.1 µM [inhibitor, partial curve, poor fit]
C[C@@H]1CN([C@@H](C)CO)C(=O)c2cc(NC(=O)CCC(F)(F)F)ccc2O[C@H]1CN(C)S(=O)(=O)c1ccc(Cl)cc1	inconclusive: 178 µM [inhibitor, partial curve, poor fit]
N#C/C(=C/c1ccc(N2CCCCC2)o1)c1cccc(F)c1	inconclusive: 316 µM [inhibitor, partial curve, poor fit]
CCO/C=N/Nc1nc(C(F)(F)F)nc2c1cnn2Cc1ccccc1	inconclusive: 89.1 µM [inhibitor, single point]
Oc1ccc(C[C@H]2CNC(=S)N2CC2CCCN2C[C@H](Cc2ccc(O)cc2)N2C[C@H](Cc3ccc(O)cc3)N(CC3CCCCC3)C2=S)cc1 (stereo partly drawn)	inconclusive: 44.7 µM [inhibitor, partial curve, poor fit]
COc1cccc(-c2nc(NC(C)(C)C)c3ccccc3n2)c1O	inconclusive: 112 µM [inhibitor, partial curve, poor fit]
CCC1CCCCN1C(=O)c1cccc(S(=O)(=O)Nc2cc(C(F)(F)F)ccc2Cl)c1 (stereo not drawn)	inconclusive: 398 µM [inhibitor, partial curve, poor fit]
O=[N+]([O-])c1ccc(N2CCN(c3ccc([N+](=O)[O-])cc3CO)CC2)c(CO)c1	inactive
CCC(=O)N1CCN(c2ccc(Cl)cc2NC(=O)c2ccc3c(c2)OCCO3)CC1	inactive
COc1ccc(Br)cc1/C=N/Nc1cccc(C(=O)O)c1	inactive
COc1ccc(CN2C(=O)CS/C2=N/N=C/c2cccs2)cc1	inconclusive: 355 µM [inhibitor, partial curve, poor fit]
COc1ccc(Cl)cc1NC(=O)C(C)OC(=O)c1ccc(NS(=O)(=O)c2ccc3[nH]c(=O)[nH]c3c2)cc1 (stereo not drawn)	inconclusive: 63.1 µM [inhibitor, single point]
O=C(NC1CCCCCC1)c1cccs1	inactive
CN1C(=O)CC(C(=O)Nc2ccc(F)cc2)SC1=Nc1ccc2c(c1)OCO2 (stereo not drawn)	inconclusive: 79.4 µM [inhibitor, partial curve]
Cc1cc(C(=O)COC(=O)c2ccccc2O)c(C)n1Cc1cccs1	inactive
